One molecule from publication PMC9440282 (iScience, 2022) can be followed below.

This assay addresses ASH2L (Absent, Small, or Homeotic 2-Like), full length, tag-free (human (by the printed accession), UniProt Q9UBL3-3 1-534). In words: cross-linking; preassembled, SEC-purified M1WRAD complex (MLL1-WDR5-RBBP5-ASH2L-DPY30) at 0.6 mg/ml, 2 mM DSS, 25 mM HEPES pH 7.4, 150 mM NaCl, 1 mM DTT, 25°C 30 min; trypsin, LC-MS/MS, pLink2. Conditions: both partners purified.

B1: MLL1 […] (WIN motif and SET domain) (domain or fragment)
chain: not shown
notes: MLL1, […], […] (WIN motif and SET domain); also called M1; source: E. coli Transetta (DE3), purified (glutathione Sepharose 4B, on-column 3C protease digestion, SEC); not shown: GST, N-terminal, cleaved
Turning to B1, the binding result was “binds”.
